In article PMC7492610:
No constants are given. Whether binding was seen depends on the method and setting. Binding seen in cells or lysates may run through a third protein. Some results given as binding are weak or reduced against the parent protein; the word gives no strength. For part of these data: Tags and fused reporters may be left off the sequences shown.

Sequences of proteins named here, by UniProt entry; tags and fusion partners are left off. Residues count along the entry.
UniProt Q9BXM7, residues 78-581: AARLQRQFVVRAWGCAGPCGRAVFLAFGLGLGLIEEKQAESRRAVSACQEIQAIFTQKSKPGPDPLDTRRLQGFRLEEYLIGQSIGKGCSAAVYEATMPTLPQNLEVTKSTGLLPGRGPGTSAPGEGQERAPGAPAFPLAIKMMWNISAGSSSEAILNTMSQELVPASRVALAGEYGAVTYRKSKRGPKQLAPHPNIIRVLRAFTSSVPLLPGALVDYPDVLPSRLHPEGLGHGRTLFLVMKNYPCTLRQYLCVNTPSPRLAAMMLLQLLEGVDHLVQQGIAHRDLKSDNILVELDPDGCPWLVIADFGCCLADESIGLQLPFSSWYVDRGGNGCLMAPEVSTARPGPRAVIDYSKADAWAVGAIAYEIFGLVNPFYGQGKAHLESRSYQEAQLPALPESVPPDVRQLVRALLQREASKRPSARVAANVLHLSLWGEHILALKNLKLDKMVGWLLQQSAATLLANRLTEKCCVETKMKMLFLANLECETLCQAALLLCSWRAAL
UniProt O60260: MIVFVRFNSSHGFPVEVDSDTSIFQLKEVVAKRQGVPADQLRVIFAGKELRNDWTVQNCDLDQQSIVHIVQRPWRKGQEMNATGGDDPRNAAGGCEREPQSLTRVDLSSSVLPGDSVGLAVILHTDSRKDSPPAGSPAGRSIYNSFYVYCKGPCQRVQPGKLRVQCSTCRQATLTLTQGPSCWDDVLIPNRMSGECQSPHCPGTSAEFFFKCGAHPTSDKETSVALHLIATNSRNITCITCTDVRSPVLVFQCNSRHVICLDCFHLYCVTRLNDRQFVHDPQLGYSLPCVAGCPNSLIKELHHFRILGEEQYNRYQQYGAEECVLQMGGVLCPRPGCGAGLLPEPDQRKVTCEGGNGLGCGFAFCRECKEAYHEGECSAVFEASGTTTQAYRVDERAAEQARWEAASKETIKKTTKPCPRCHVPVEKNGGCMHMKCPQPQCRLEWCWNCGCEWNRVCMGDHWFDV

Key:
Flag-MDA5 = target: T1, Flag-MDA5 (UniProt Q9BYX4); test: co-IP; 293T cells co-transfected, 24 h, untreated or treated with CCCP (10 uM) for 12 h; lysis in 50 mM Tris-HCl pH 7.6, 150 mM NaCl, 0.5% Triton-X-100; anti-Flag agarose at 4 C overnight, washed four times with RIPA buffer; immunoblot
T1 sequence: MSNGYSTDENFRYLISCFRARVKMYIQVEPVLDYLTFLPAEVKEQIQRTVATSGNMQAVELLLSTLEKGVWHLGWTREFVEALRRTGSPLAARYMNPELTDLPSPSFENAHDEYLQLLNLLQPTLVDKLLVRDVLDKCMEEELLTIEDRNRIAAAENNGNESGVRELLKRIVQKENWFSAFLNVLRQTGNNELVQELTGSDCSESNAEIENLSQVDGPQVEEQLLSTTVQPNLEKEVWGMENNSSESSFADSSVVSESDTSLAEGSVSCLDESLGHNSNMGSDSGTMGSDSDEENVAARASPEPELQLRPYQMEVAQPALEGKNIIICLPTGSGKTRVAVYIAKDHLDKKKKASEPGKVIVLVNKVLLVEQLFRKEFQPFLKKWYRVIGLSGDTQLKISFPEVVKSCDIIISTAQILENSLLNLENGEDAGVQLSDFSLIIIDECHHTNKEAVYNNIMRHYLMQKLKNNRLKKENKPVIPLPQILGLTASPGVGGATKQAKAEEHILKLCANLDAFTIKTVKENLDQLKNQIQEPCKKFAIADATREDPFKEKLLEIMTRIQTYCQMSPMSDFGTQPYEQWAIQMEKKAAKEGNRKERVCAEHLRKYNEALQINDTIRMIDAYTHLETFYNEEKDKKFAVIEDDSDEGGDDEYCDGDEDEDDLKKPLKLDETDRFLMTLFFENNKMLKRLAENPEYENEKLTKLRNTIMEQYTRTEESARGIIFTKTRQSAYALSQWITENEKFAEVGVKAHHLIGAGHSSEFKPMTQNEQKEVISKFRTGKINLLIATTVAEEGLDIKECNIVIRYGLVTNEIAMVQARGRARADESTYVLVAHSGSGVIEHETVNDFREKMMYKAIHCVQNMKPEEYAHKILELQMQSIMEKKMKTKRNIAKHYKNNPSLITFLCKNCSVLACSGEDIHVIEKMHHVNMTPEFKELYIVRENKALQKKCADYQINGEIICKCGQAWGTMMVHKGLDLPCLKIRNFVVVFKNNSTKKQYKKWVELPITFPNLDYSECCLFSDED

Flag-RIG-I = target: T2, Flag-RIG-I (UniProt O95786); test: as above
T2 sequence: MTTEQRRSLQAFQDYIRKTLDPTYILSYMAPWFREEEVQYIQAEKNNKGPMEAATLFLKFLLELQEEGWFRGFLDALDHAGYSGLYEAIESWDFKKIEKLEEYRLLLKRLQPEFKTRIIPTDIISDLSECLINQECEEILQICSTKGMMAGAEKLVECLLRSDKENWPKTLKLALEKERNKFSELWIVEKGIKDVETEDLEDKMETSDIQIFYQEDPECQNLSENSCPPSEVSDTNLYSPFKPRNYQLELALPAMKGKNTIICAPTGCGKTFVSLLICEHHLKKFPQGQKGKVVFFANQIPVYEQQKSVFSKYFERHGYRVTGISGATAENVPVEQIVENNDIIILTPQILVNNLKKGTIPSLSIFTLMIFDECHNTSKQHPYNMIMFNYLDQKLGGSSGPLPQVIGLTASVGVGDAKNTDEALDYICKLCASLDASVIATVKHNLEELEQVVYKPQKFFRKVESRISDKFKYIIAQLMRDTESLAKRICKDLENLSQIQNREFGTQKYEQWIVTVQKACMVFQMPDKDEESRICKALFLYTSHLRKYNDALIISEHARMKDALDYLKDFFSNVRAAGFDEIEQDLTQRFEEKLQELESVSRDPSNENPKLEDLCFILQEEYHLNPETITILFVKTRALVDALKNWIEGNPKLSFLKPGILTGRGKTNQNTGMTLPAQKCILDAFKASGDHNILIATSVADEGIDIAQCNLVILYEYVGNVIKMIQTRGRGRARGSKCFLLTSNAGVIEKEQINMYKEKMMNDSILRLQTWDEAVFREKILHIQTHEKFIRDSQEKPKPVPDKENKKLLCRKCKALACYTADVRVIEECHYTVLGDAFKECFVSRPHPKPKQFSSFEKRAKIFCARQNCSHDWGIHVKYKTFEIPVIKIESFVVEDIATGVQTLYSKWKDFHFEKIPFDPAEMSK

[1] = target: T3, endogenous RIG-I (human (endogenous in HEK293)) (UniProt O95786); test: co-IP; endogenous proteins; HEK293 cells stimulated with SeV for 10 h, whole cell lysates immunoprecipitated with indicated antibodies; immunoblot
T3 sequence: T2 sequence

[2] = target: T4, endogenous MDA5 (human (endogenous in HEK293)) (UniProt Q9BYX4); test: as above
T4 sequence: T1 sequence

Row | Substance | binding (Flag-MDA5) | binding (Flag-RIG-I) | binding [1] | binding [2]
1 | Myc-PINK1 (from UniProt Q9BXM7 78-581) (enzyme) | no binding | no binding | – | –
2 | Myc-Parkin (from UniProt O60260 1-465) (enzyme) | binds | binds | – | –
3 | endogenous Parkin (from UniProt O60260 1-465) (enzyme) | – | – | binds | binds
